Laboratory results published in publication PMC4336329 (PLoS ONE, 2015).
About 14,000 (4.5%) of roughly 310,000 compounds showed an effect of 50% or more. Effects have a minus sign here. The list shows a part of the results.

Biological target: human ether-à-go-go-related gene (hERG) potassium channel (human, UniProt Q12809)
Assay: primary screen, population patch clamp on CHO cells stably expressing hERG
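Note: peak tail current of the secondary pulse compared with the same well before compound.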

Chain of human ether-à-go-go-related gene (hERG) potassium channel (Q12809 whole entry, looked up): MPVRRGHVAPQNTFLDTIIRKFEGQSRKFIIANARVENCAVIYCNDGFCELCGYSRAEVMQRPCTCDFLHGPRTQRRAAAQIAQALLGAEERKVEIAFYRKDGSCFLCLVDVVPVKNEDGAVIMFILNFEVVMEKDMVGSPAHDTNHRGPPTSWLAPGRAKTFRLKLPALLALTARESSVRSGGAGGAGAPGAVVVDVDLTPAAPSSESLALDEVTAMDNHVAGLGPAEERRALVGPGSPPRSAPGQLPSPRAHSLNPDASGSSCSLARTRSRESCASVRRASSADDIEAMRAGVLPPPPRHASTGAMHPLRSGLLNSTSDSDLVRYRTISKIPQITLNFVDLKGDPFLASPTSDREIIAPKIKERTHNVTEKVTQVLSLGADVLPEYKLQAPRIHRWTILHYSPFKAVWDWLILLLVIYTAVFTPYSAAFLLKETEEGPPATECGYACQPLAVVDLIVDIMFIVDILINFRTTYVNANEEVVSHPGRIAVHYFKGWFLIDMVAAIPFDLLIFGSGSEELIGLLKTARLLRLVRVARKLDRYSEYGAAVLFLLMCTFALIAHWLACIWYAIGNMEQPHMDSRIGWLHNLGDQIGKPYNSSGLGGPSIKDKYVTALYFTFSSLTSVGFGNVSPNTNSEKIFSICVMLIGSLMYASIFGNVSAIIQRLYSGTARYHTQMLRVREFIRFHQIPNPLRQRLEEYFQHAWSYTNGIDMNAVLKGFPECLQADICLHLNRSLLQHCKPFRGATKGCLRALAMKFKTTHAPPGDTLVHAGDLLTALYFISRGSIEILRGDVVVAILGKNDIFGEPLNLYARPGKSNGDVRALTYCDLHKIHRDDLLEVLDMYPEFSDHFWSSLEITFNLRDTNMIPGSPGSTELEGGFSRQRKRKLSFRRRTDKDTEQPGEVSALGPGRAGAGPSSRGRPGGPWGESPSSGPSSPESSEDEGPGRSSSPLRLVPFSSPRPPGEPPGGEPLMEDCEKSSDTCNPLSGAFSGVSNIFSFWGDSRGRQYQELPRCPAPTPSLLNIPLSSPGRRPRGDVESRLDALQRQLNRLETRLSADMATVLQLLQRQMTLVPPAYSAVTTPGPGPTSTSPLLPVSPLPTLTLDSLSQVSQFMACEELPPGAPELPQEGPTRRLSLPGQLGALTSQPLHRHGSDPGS

| SMILES | hERG current change (%, negative = inhibition) at 10uM [%] |
| --- | --- |
| CCCC(=O)N=C1SC2CS(=O)(=O)CC2N1c1ccc(-c2nc3ccc(C)cc3s2)cc1 (centres unmarked) | 3.62 |
| Cc1ccccc1C(=O)O/N=C(\N)c1ccccc1 | 9.07 |
| CSCCC(NC(=O)c1ccccc1)C(=O)Nc1ccc(NC(C)=O)cc1 (centres unmarked) | -5.4 |
| CCc1ccccc1NC(=O)CNCc1ccccc1.[O-][Cl+3]([O-])([O-])O | 6.63 |
| COc1cccc(Nc2c(F)c(F)c(F)c(F)c2C(=O)O)c1 | -10.2 |
| Cc1ccc(CC(=O)Nc2ccc(S(=O)(=O)Nc3ncccn3)cc2)cc1 | 19.9 |
| COCCNC(=O)C12CC3CC(C1)CC(c1ccccc1)(C3)C2 | 0.464 |
| O=c1c(Cl)c(NC2CC2)cnn1-c1ccccc1 | 6.9 |
| CC/C(C)=N/NC(=S)NCc1ccco1 | 11.9 |
| Cc1sc2ncnc(SCC(=O)N(C(C)C)C(C)C)c2c1C | 13.4 |
| Cc1ccc(C(=O)Nc2cccc(C(F)(F)F)c2)cc1NC(=O)c1cnnc2ccccc12 | -5.9 |
| COCCNC(=O)CN(C(=O)Cn1nnc2ccccc21)c1cc(C)cc(C)c1 | -22.4 |
| COC(=O)C1=C(N)Oc2cc(C)n(CC3CCCO3)c(=O)c2C1c1ccccc1OC (centres unmarked) | -7.79 |
| Cc1ccc(O)c(N=Cc2cccs2)c1 | 1.72 |
| Cc1ccc(NS(=O)(=O)c2ccc(C)c(NC(=O)COc3ccc4ccccc4c3)c2)c(C)c1 | 20.7 |
| Cc1ccsc1C(=O)C1CCCN(Cc2cc(C(C)C)n[nH]2)C1 (centres unmarked) | -43.9 |
| O=C(O)CCN1CCc2ccccc21 | 9.02 |
| CC1(C)CC(=O)C2=C(C1)NC(=O)CC2c1cc2c(cc1Br)OCO2 (centres unmarked) | -14.8 |
| COc1ccc(-c2[nH]ncc2CN(C)C(C)c2ccon2)cc1F (centres unmarked) | -15.3 |
| O=C(CSc1ncn[nH]1)NCCc1ccc(Cl)cc1Cl | 16.8 |
| S=c1[nH]c2ccc(Cl)cc2[nH]1 | 9.34 |
| Cc1cc(C)cc(-n2c(C)cc(/C=N/NC(=O)c3ccncc3)c2C)c1 | -15.2 |

| SMILES | hERG current change (%, negative = inhibition) at 10uM [%] |
| --- | --- |
| O=C(O)[C@H]1NC[C@H]2C[C@H]21 | 24.2 |
| CC1CN(C(=O)c2ccc(S(=O)(=O)Nc3ccccc3F)cc2)CC(C)O1 (centres unmarked) | 2.88 |
| CC1CCN(CCCn2c(SCC(=O)Nc3ccccc3Cl)nc3ccccc3c2=O)CC1 | -70.8 |
| COc1ccc(S(=O)(=O)N2CCCC2CNC(=O)C(=O)NCc2cccs2)cc1 (centres unmarked) | -17.9 |
| CCC(=O)Nc1ccc(Cl)c(NC(=O)C(C)C)c1 | -0.902 |
| CCOc1ccc(S(=O)(=O)N2CCC(C(=O)OC(C)C(=O)N3CCOCC3)CC2)cc1 (centres unmarked) | -25.2 |
| Cc1ccc(NC(=O)CS(=O)CC(=O)N(c2ccc(C)cc2)C(C)C(=O)NC2CCCCC2)cc1 (centres unmarked) | -14.1 |
| O=C(c1cc2ccccc2oc1=O)N(Cc1ccccc1)C1CCS(=O)(=O)C1 (centres unmarked) | -12.2 |
| COc1ccc(NC(=O)Nc2nnc(N3CCC(C)CC3)s2)cc1OC | -0.885 |
| Cc1ccc(C2CC(c3ccc(C)cc3)n3nc(N)nc3N2)cc1 (centres unmarked) | -10.6 |
| CCOC(=O)C1=C(C)N=C2SCCC(=O)N2C1c1sccc1C (centres unmarked) | 2.53 |
| CCn1c(CCNC(=O)c2ccc(Cl)c(Cl)c2)nnc1SCCOc1ccc(OC)cc1 | -8.77 |
| CC(=O)c1ccc(N2CCN(C(=O)c3ccc(Cl)c(NC4=NC5CS(=O)(=O)CC5S4)c3)CC2)cc1 (centres unmarked) | 12 |
| O=C(C1=C(O)C(=O)N(Cc2ccco2)C1c1cccc([N+](=O)[O-])c1)c1ccco1 (centres unmarked) | 5.7 |
| Cc1ccc(-c2nn(CC(=O)Nc3cccnc3)c(=O)c3ccccc23)cc1 | 3.28 |
| C=CCn1c(SCc2c(C)noc2C)nc2sc(C)c(C)c2c1=O | -11.2 |
| COc1cc2nc(CN(C)Cc3nc4ccccc4c(=O)[nH]3)[nH]c(=O)c2cc1OC | -3.98 |
| CCn1nc(C)c(Br)c1-c1nc(CS(=O)(=O)c2ccc(F)cc2)no1 | -42.6 |
| COCCN1Cc2cccc(C(=O)Nc3c(C)cccc3C)c2C1=O | -1.56 |
| COc1cc(C2NC(=O)NC(O)(C(F)(F)F)C2C(=O)c2cccs2)ccc1O (centres unmarked) | -5.38 |
| O=C1C=C(c2cccc3c2sc2ccccc23)C[C@@H](c2ccc(Cl)cc2)C1 | 4.76 |
| Cc1sc(NC(=O)c2cccs2)nc1-c1ccccc1 | -0.37 |
